# Reference: publication PMC10726135
# The other results are listed elsewhere or left out. At the low end of the ranking the order means little. Measured with an extract: partners may take part in the binding.
# Molecular target: T1, HNF4alpha8 (COS-7 nuclear extract) (UniProt P41235-5)
# T1 sequence: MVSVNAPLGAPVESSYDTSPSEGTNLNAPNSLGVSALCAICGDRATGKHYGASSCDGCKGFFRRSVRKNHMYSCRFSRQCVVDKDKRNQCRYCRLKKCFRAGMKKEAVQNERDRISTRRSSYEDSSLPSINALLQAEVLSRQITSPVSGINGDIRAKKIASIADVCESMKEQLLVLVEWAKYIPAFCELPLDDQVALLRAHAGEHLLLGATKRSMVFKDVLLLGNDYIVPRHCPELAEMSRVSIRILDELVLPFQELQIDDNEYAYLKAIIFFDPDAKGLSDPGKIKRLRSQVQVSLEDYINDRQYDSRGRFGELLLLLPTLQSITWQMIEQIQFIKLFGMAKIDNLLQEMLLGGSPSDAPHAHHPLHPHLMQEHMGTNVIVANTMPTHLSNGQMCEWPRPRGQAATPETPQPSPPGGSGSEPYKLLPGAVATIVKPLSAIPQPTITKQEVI
# Experiment: protein-binding microarray
# Settings: COS-7 nuclear extract on double-stranded Agilent 4x180k PBM; binding buffer, salt, pH and temperature not given; high values mean tight binding; double strand, one strand shown; sequences stand for … in …GCCTAGGGAGATTAGAGTATCGGTCGA
row,Sequence,binding signal (log2 normalized intensity)
1,TGCTAGTAAGGGGAGGAGCTGAAACAGTCT,-1.23
2,ACCCCACGGAGCTGCCTCACATGAGCTAGA,-1.07
3,CCCAGACGCAGGCCTGCAAGCTCCTGGTTG,-1.23
4,AACGACCCTTGCTCTGTTTTCTGACGCAAC,0.868
5,GGCCCAAGATAAAGGGACAGGGGTCATCAG,3.62
6,CTCTCTCTCCTAACTATGGTCACGCGGCCA,-1.07
7,AGAAAGTGAGGAATGCAACCACACCAACAT,-1.33
8,AAAGGTTGGGGGTGGGGAGGAAGCAAAATT,-1.29
9,AGGCCGGGCCTCAAGGGAATCTGCTGTAAT,-1.14
10,GGGTTAGGCCTTTAGAGGATTTACTTATAC,0.821
11,CTGGTGCTGCTACTTTAGCTGCCAGAGGTT,-0.834
12,TCTTTTGACCTTTGCCTCATTCTTATTGCC,5.61
13,CGGCCTTTCCCGGCTGCCTAAGCACTTGGG,-1.35
14,CTGAAGAATTTGGACTTTGCACTAAAAGCC,7.57
15,AGCATCCCTCGGGCCGGGAAACGCCCTCGG,0.186
16,CCTTGCCTTAAGAGCAGTCTGCTCAAGTCT,-1.34
17,TGGCACACAGAGGACGTCAGGCAGAGAGGG,-1.2
18,CTGATGGCTGCTTCACACAAACATCACCTA,-1.14
19,CGGGTCACGTGCCGCTGCGGGTCACGTGTC,2.04
20,CCTCCAACTATGCTAAGAATGCGAACCATT,-1.35
21,GTAAGTATGCTCACTGACCTCTGCCCTACT,5.23
22,ACTACCCCTGCCTAAACAAGGCAGACTTGG,-1.28
23,AACTTCCTCCTCCTTGGCTCTCCCCACTTA,2.5
24,AAGGTCAGCAAGCCTGGAGTTCTGATGTTC,0.91
25,GACTTGACAAAGGTCATTCATGTGCAGGTT,3.41

row,Sequence,binding signal (log2 normalized intensity)
1,AAGGAATTTACTGCAGTCAGGGGTTAGGCC,0.321
2,GCGCGGGGCGCCTCCCGGAGGACCCGACCG,-1.23
3,CCCAAATGCAAACAGCAGCCACATTCCATG,-1.21
4,TGCGCAAGTCCCAGAAGTTCTAAGGTGGGA,-0.458
5,GGTGATGAGTTCTTATCTAGGTAAGTATAG,1.18
6,TAAATCAGAAGAAAAAGGTAAGGAGATAAG,-1.35
7,TTGCCTTATTTGAACACAGTTCGAACAGTT,0.739
8,CCCGCTCCACTCCGGGCGATCCGGGCTCCG,-1.31
9,AGGAAAGTCTCCCTCCCTTTGATCCCACAC,3.2
10,CAAGAATCTTGATTACTATAGGGCAAATGG,1.72
11,AGGTTTGATTTCAGCATGTTTAAATGCTGA,1.54
12,ATTTTGGAATGTCGCATAGCTCCTGGCTGG,-1.33
13,GTTGCTGAAGGGCAGGGTTGGCTGTGGCAA,-0.542
14,GATATTGGCCAAAGGGCACAAGAGGAATTG,2.4
15,AGGAATTTTAAAAGTATACTATATTTGTCC,1.46
16,ATGTTTGCCGACCTCCTGACTAAAGTTCAT,3.42
17,TTGCACTGCAAAGAAGTCAAACTTTGGACC,7.1
18,TTCTGCTGCATTCTATTGGTCAAAGTAAAT,1.05
19,AGGGATCTTTGCACTTGATGTTCCCCCTCC,4.51
20,GGGCAAGAAAGGGGTCAGCAAAAATAGCCA,-1.38
21,ATCAGTATCCCAGTTCTGGATACTGATTAC,-1.27
22,CACACATTAGCTTCCCGGCTGTCACAGCCT,-1.2
23,AGGTTATTCTTTCCCCTCCCTTCCACCTTT,3.91
24,CTGAATGACCACATGCCCTCAGTACAGGGC,1.14
25,CCTGATTGGTCATACTTGACCCACAGCTAG,2.44

row,Sequence,binding signal (log2 normalized intensity)
1,ATGCAAACACCTACATTCAAATCCTTGCTC,-1.28
2,TTTGCCCTGTCAGTCTCTCAATGATTGACA,-1.2
3,CCTCCCTCCATGCTGTAGATTGTGGAATGT,1.54
4,GCAAAGCCAATCTGCTTAAAGGCAAAGTCC,4.54
5,AATCCTCAAAAATGCTTTACAAGGTGGTTG,1.44
6,AGACTTTGACCTCTGCTAGGTTTGGGTAAG,6.12
7,CGCATCTGAAGATAAGAGAAGTTGCTCTTT,2.63
8,TCTCACTGGATGTGTACCTCATCTTCTTTC,1.25
9,GGTTGGGGGTGGCTAATTACATCCAGAGTG,-0.357
10,AGTATCCGCCTTCACTCCCCTGACAGCATG,1.87
11,CCCGGAGCGGAGCATCCCTCGGGCCGGGAA,-1.23
12,GTTCCAGTTATGTTCTCTGTACGGAAGGCC,0.953
13,CTGCTTCAGTTTTGCCATCAGCTCCCTCCC,2.53
14,AAATTGTGATAACCCCTATGTCTTCAGACT,2.33
15,TGTGTCTGTTTACCCACTTGGGGTTCTTGG,1.47
16,GGAAAATTACCAATGAGAAACCTCAAAGGT,-1.29
17,CTTACGAAGATAAATCAGAAGAAAAAGGTA,-1.21
18,GGAGATAAAGCAGAGGGCTGCTTGCAGGAG,-1.33
19,AATCTTATTTTTACTATGTGGCATTTAGAA,1.29
20,AGCATAGAAGTAAGAAATCAGGAGCAAAGG,0.165
21,GACATAACACAGGTGACCTTTGCTCCGGTT,7.92
22,ATGCTTCAAATATTTGGATAATGTGCCCTT,3.92
23,CTTATCAGCCCCCATGTCAGGGAAGGTGCC,2.56
24,GGTGCTGATGTTAACACAAGTTATTACCGT,0.581
25,CTAACCCAAATGCAAATACCTATAGACCTG,-1.33

row,Sequence,binding signal (log2 normalized intensity)
1,TAAACATTCCCCTTTGTCTAAGCTAGTCAT,0.549
2,GACAGCCACACTTTAATGTGGAGTAGACTA,-1.07
3,AGGTGACCTTTGCTCCGGTTCCCAATAAGT,5.71
4,TATGCTGGCAGTAGGGAGGTTTGGGGTTAT,1.06
5,ACCATTAGGGGGCAATTTCCCTGGTCGACC,2.18
6,GTGACTTGATCTTTGACTGGATTCTCAGCC,1.84
7,CTTCTCTTGTTTGTGTAACTGTGGGTTCTA,2.53
8,ATAGGTCAGAGGACACCCGGGGTGGGCATT,0.429
9,GCTTCAAAGGTCACTGTCCTAATTTTTTTT,3.31
10,AGGCAAGAGCTCAGAAGCCACCAGTGCAAA,-1.41
11,GAATTGTGATAATAAATGTGTTTCATCAGT,1.5
12,ACTGAATCACACTACTGGCTTTTCTGGTTC,-1.21
13,GGTTGCACTCTGGTGCCCTCTGAGTGTTTG,2.54
14,ATTGACTCTTCGTTTTCTTTTTAGTTTACA,0.851
15,TCAGTGGGCTAAACATCAAGACAGGTGAGA,-1.11
16,CAGTGGAATCTACAGAATTCTCATGGAGGA,-1.02
17,AATAATCTGGCATAGGAACAAAGGTTGGTG,2.9
18,CTGGTGATCTTTGTTAGACCCTTATCAGTA,2.07
19,ACAGTTCTGATACATTGGACAACTGTACTT,2.21
20,CATTTTTGACCTTCAGCATCTTCAACTGTG,3.46
21,GTTCAGCGCGTCTTAGCACTCACCCAATAA,-0.955
22,TTTCTGTCCAGAGTTTAAATGACCTCTGCC,4.72
23,ATACACTTTCCGTACTTTTCATCTGATCAG,1.41
24,ACACTCATCAGGTGAGATAAGAAGACTCCA,-1.32
25,GGATAAGCATGGAGATGAGTGGGTTCACTT,1.94

row,Sequence,binding signal (log2 normalized intensity)
1,TGGGCCACCTGCCATCATTTTCTGACCAGG,-0.0408
2,GAGGCCATATCACAGGAGAAAACAGCACAA,-1.37
3,TTATCTTCAGGTTTGCTAATATCTGATGTT,0.362
4,CCAAGGCGTATGAAGCTTTGACCCTGTTTT,3.72
5,TGGTTCACACCCCACGTACATTGCACCCTC,4.44
6,TCCATAATCCCCGAATGTCCAGACTGTGCA,2.09
7,TGGGCCTTCAGCTTGAAAACACAACAAAAG,-1.35
8,GGTACAGCAGCATAAAGGACTTTCAACCCT,4.97
9,GATCTTTGACCGCTGCCTCCCACCCCCACG,5.6
10,GTCCTCACCCAGAACTTTGACCGTTTGATT,4.1
11,TGTTAGCAGAGCAATTACTCATGTCCTCAG,-1.15
12,AGGATTATAGTTTATCTACCTTTGTACCTT,6.1
13,TTTAGCAGCACCATCCTACAGGGTATGAAT,-1.32
14,TATTTTATAGAAAAGGAAAGTGAGGCCTGG,0.0311
15,GGGAGGAGGGGGGAGGGTCGGCAACGGTGA,-1.37
16,TGGTTTTATCAGCTGAGGCCATTGCCTTTC,0.965
17,TTTGTACACACAGCACTGCAAACAGTGAGC,-1.13
18,GTCAAACCTTTGACCCTTTATAATCCCCTA,4.71
19,TTACTGAACGCTGCGCATACCATATGCATT,-1.35
20,GTGCCTGTGCATACCTGGAATTGTACACAT,0.533
21,GGGCGAAAAAGACGCGGTCTCAGTTAACGG,-1.32
22,GAAAGAGACCTTTGACATCACCTAACTTGT,2.67
23,ATCTTATCAGCAAGGGCATTTGCGTAGGCT,-0.794
24,GAGTCCACCACTGACCTTAGACCCTCAGGC,5.03
25,GCTCCTAGCCCTGCAGTGTATGACACAGCC,-1.23

row,Sequence,binding signal (log2 normalized intensity)
1,GGAAAAAGGGAGATAGGTTAAAATTTATCT,-1.02
2,TAGTATGTGCTAGGCATTTTATAGTATTTC,0.52
3,GAGGAGTCAAAAGGTGTATGTGGACTTTCA,5.3
4,CAGTTACAAACAAAACAAACTAAACACAGT,-1.43
5,TCTCTTCCCAACAGGAGATTACTTCAAGGC,-1.31
6,GCTTGTTCTCTCCCCCAACCCCACCTTCAT,4.61
7,AACTGGCTTTAAGAGGAATGCTTTGAGCCA,-1.37
8,ATTGGAGAGCATCTTGGACTTGGGACTCTG,6.7
9,AGCCTGTTCCGACCTTAGTACTCTGCCATG,3.39
10,AAAAAATTACTGACCCTTGCACTGTAAGAT,4.14
11,GTTTGACCTTTCACCCAGAAAAGGCTGTAA,4.63
12,AGCTGCTAAGTCTTTCCACACAGCCTGTCA,-1.32
13,GAGAGGGGGAGTGAAGGTTAGTACTCAGAA,-0.819
14,GAATATCTCAGCAGCCTGGCTGCTCGCAGT,-1.26
15,CTGTCCTGGACTTTCCTTTGTTGGGAGACT,1.6
16,TGATCCCCTCTCCTTTGGTGCAAATACCAT,1.67
17,CTCTAGAGGGCTGCTTATCTAGGATGAGAA,-1.32
18,TCTGATCCCAATTTATCTTTCCAGATTGTT,0.666
19,CTACATAAGGGTAGAGACCTTTGTTTTGTT,2.44
20,TATAAGAAACTGCTCCTGCTTGGGAGAACC,-1.26
